{
  "source": "the RNAGym collection of RNA variant scans (doi:10.7554/elife.90254)",
  "parents": {"B1": {"name": "LINE1-mini (parent)", "chain": "GGCAGAGCUCAACACAGCGUGGCAAAGUGGCUGUGGCUAGACUGCC"}},
  "note": "The source gives no read counts; variants with many changes may rest on few reads.",
  "data": [
    {"variants_of": "B1", "assay": "self-cleavage, relative activity (ratio to wild type); higher = more cleavage; in vitro, sequencing; the parent is a self-cleaving ribozyme", "values": [
      {"variant": "G19A U38C C42A G44U", "self-cleavage": 0.03},
      {"variant": "A4C G5U A39U", "self-cleavage": 0.04},
      {"variant": "C18U G19U C31G A39G", "self-cleavage": 0.02},
      {"variant": "A16C G35A C45U", "self-cleavage": 0.07},
      {"variant": "A16G G33U U34G G44C", "self-cleavage": 0.01},
      {"variant": "C18U G22A A26U", "self-cleavage": 0.51},
      {"variant": "A12C C31U C46A", "self-cleavage": 0.04},
      {"variant": "A4U G5U G19U G21A U34A G36A", "self-cleavage": 0.04},
      {"variant": "C18G C23U A26C C42U G44A", "self-cleavage": 0.02},
      {"variant": "G2C U9A C10G C23A C46A", "self-cleavage": 0.03},
      {"variant": "C3U C23U A24G U28C C45A", "self-cleavage": 0.14},
      {"variant": "G21A A26C G44U", "self-cleavage": 0.45},
      {"variant": "G5C A14U C31A U32C", "self-cleavage": 0.05},
      {"variant": "G7C G19U G36A", "self-cleavage": 0.06},
      {"variant": "A11U U28A C31U", "self-cleavage": 0.05},
      {"variant": "C10A C13A A26U C45U", "self-cleavage": 0},
      {"variant": "U9A A12G C31A U32C", "self-cleavage": 0.19},
      {"variant": "A4U A14G G40C", "self-cleavage": 0.03},
      {"variant": "G5A C8A C18U G36U", "self-cleavage": 1.37},
      {"variant": "C10G G17U G40A", "self-cleavage": 0.04},
      {"variant": "G1C G5U C37U U38G", "self-cleavage": 0.01},
      {"variant": "A6U G19C U34A A41U", "self-cleavage": 0.08},
      {"variant": "A4G C10U A14G A16G C18U G35A C45U", "self-cleavage": 0.02},
      {"variant": "A16C G35C A41G C46U", "self-cleavage": 0},
      {"variant": "G1U G5U A14G G27C U28C G30U U32A A39U G44A", "self-cleavage": 0},
      {"variant": "G2C C18U U32C G33C G44A", "self-cleavage": 0},
      {"variant": "C3A U20G G21A U34C", "self-cleavage": 0.08},
      {"variant": "A6C G17A G36U U43G C45U", "self-cleavage": 0.01},
      {"variant": "G2A U20G G27C", "self-cleavage": 0.07},
      {"variant": "A6C G35C G36U A39U G44A", "self-cleavage": 0.01},
      {"variant": "C3U C10A C23G C45A", "self-cleavage": 0.03},
      {"variant": "G1U U9A C15U", "self-cleavage": 0.05},
      {"variant": "U9C A12U C46U", "self-cleavage": 0.02},
      {"variant": "G5U C15A G29C G33A A39C", "self-cleavage": 0.05},
      {"variant": "A4C G36A A39C C42A G44C", "self-cleavage": 0.04},
      {"variant": "C8U C10U A11C A16G G40U", "self-cleavage": 0.01},
      {"variant": "C15A A16G C18A", "self-cleavage": 0.05},
      {"variant": "A25U C37A G40U C46A", "self-cleavage": 0.45},
      {"variant": "U9G A26U A41U", "self-cleavage": 0.07},
      {"variant": "C31G G35C A41U", "self-cleavage": 0.03},
      {"variant": "A14U A24C G36U", "self-cleavage": 0.25},
      {"variant": "G5C A6C G22A C23U C45G", "self-cleavage": 0.04},
      {"variant": "A12G A24U U34G", "self-cleavage": 0.01},
      {"variant": "C3G A26U G27U U38C C45A", "self-cleavage": 0.04},
      {"variant": "G1A A4G G21A U32A", "self-cleavage": 0.27},
      {"variant": "G2C G7U C8A G30U", "self-cleavage": 0.06},
      {"variant": "G1C C18A C37U", "self-cleavage": 0.03},
      {"variant": "C8U A12C G40C", "self-cleavage": 0.01},
      {"variant": "C3A U9G C37U", "self-cleavage": 0.6},
      {"variant": "C3A A12G A14G A16C", "self-cleavage": 0.06},
      {"variant": "A11U A25U C31U", "self-cleavage": 0.19},
      {"variant": "A6G G21C G35U", "self-cleavage": 0.05},
      {"variant": "C3U A6G U9G C23G", "self-cleavage": 0.13},
      {"variant": "C3G C8A C18G U32C C42A", "self-cleavage": 0.13},
      {"variant": "A6C A14C C15A G19U", "self-cleavage": 0.37},
      {"variant": "G1U G19U G36C", "self-cleavage": 0.06},
      {"variant": "C8U C15A C45U", "self-cleavage": 0.08},
      {"variant": "U20C G27U G35C", "self-cleavage": 0.08},
      {"variant": "G19U C23G U38C C42U", "self-cleavage": 0.42},
      {"variant": "C8U A41C G44A", "self-cleavage": 0.1},
      {"variant": "U9A C10U U34G", "self-cleavage": 0.07},
      {"variant": "A11G A14G C15U C18A A39U C42A", "self-cleavage": 0},
      {"variant": "G7C C10A A11C C23G", "self-cleavage": 0.02},
      {"variant": "G7A C13G A25U", "self-cleavage": 0.23},
      {"variant": "G1C A26C G27A", "self-cleavage": 0.04},
      {"variant": "G5A A16G G29A U34G", "self-cleavage": 0.03},
      {"variant": "G1U C8U G30A", "self-cleavage": 0.23},
      {"variant": "A12C G19U G40A", "self-cleavage": 0.03},
      {"variant": "U32G C45U C46A", "self-cleavage": 0.07},
      {"variant": "C10U A41C C45G", "self-cleavage": 0.03},
      {"variant": "C10A G19U C23A G30U G35C", "self-cleavage": 0.01},
      {"variant": "A6G G22A G30A G33A", "self-cleavage": 0.04},
      {"variant": "G2U C3U C23G U38C A39C G44U", "self-cleavage": 0.07},
      {"variant": "C13U G21U U28C C31U G35C C46G", "self-cleavage": 0.01},
      {"variant": "A16U U32G G33U U34C", "self-cleavage": 0.04},
      {"variant": "C3A G5C G17U C18U", "self-cleavage": 0.02},
      {"variant": "G5U G17U C31U U32G", "self-cleavage": 0.04},
      {"variant": "G22C A25G G44A", "self-cleavage": 0.03},
      {"variant": "C23G U32G C45G", "self-cleavage": 0.04},
      {"variant": "A12G U38A C42A", "self-cleavage": 0.02},
      {"variant": "A12G G21A G33C", "self-cleavage": 0.02},
      {"variant": "G2A C23A G29U", "self-cleavage": 0.2},
      {"variant": "G7A G17U A24U G27A G35U", "self-cleavage": 0.14}
    ]}
  ]
}
